Sequences with one replicate were seen in a single cluster, so their values are uncertain.
Each sequence was assayed on ATP (assay: switch fluorescence ratio, 500 uM ATP over buffer (Cy3 cluster intensity, sum of 5 cycles each) (fold (ratio)); higher = stronger signal-on switching upon ATP binding; sequences stand for … in TCGTCGGCAGCGTCAGATGTGTATAAGAGACAGTTTTTTTTTTTTTTTTTTTTTTTTT…TC). Conditions: aptamer strand: ATP DNA aptamer (quencher-CACCTGGGGGAGTATTGCGGAGGAAGG + anchor), 100 nM annealed; ATP concentration: 500 uM; one replicate.
In short: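 Values give the fluorescence ratio for each switch-domain sequence, averaged from per-cluster ratios of summed target-cycle to summed buffer-cycle Cy3 intensity. The Cy3-labelled switching-strand clusters sat on a modified Illumina MiSeq flow-cell, were annealed to 100 nM quencher-labelled ATP aptamer, and were imaged in selection buffer, then after 15 min with 500 uM ATP at 22 °C. Five cycles ran with NaOH stripping and re-annealing between them, and clusters outside 100-1000 RFU were excluded.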
CATCTTGGCT gave a switch fluorescence ratio of 0.995.
CGCTTTATAG gave a switch fluorescence ratio of 1.26.
For ATGGTCTTGA, the switch fluorescence ratio was 1.03.
AGCCCTGTGG was tested, and the switch fluorescence ratio was 1.02.
Work on TGTCCAAATC yielded a switch fluorescence ratio of 1.
For GCGCTACGAA, the switch fluorescence ratio was 1.19.
GGTGCCATCC was tested, and the switch fluorescence ratio was 2.05.
Work on CGCGTTACCA yielded a switch fluorescence ratio of 1.01.
TAGGGGTGAC showed a switch fluorescence ratio of 1.02.
Sequence CACGCAGCTG has a switch fluorescence ratio of 1.15.
Sequence CAGTAAAAAT has a switch fluorescence ratio of 0.978.
For GTAAGATGGT, the switch fluorescence ratio was 0.937.
Sequence CGAACGTGTA has a switch fluorescence ratio of 1.16.
Sequence TACTGGGAAC has a switch fluorescence ratio of 1.02.
With ACGTACGTTC the switch fluorescence ratio was 1.42.
For GCGTCAGCAG, the switch fluorescence ratio was 1.04.
GTGTTCATTG was tested, and the switch fluorescence ratio was 0.966.
For TTGTTGATAG, the switch fluorescence ratio was 0.968.
TACCTTTTTA was tested, and the switch fluorescence ratio was 1.05.
AAGTTTGTAA showed a switch fluorescence ratio of 0.964.
Sequence AAGGGGTCG has a switch fluorescence ratio of 1.03.
For CGTAACCTG, the switch fluorescence ratio was 1.03.
For AAGTAGCGCA, the switch fluorescence ratio was 1.01.
GTTGTGGCAT showed a switch fluorescence ratio of 1.02.
TTAGGTTTTA showed a switch fluorescence ratio of 1.03.
ATGGACTGTT gave a switch fluorescence ratio of 1.05.
For GCGCAGGAAA, the switch fluorescence ratio was 1.24.
GACGAGCTTT showed a switch fluorescence ratio of 1.14.
For AGATGTGTAT, the switch fluorescence ratio was 0.97.
ATTATGGGGC gave a switch fluorescence ratio of 0.995.
Work on CTTAGGCACG yielded a switch fluorescence ratio of 1.08.
Sequence GTGCGAGTCC has a switch fluorescence ratio of 0.976.
With CTGTTATC the switch fluorescence ratio was 1.02.
AACCAGTCGG gave a switch fluorescence ratio of 0.982.
Sequence GACGATTAG has a switch fluorescence ratio of 1.06.
Sequence AGTGAGTACG has a switch fluorescence ratio of 1.02.
Work on TGACAAAGGA yielded a switch fluorescence ratio of 0.903.
With GACAGATCTT the switch fluorescence ratio was 0.992.
For GGCCCGCAAG, the switch fluorescence ratio was 5.07.
In the case of CACTCCAAGC, the switch fluorescence ratio is reported as 1.31.
For TCATATGGAC, the switch fluorescence ratio was 1.06.
AAGTTCCTTG showed a switch fluorescence ratio of 0.961.
In the case of ACTCCTGGG, the switch fluorescence ratio is reported as 1.24.
TATTCCTCAT was tested, and the switch fluorescence ratio was 1.05.
TGGGCGACGC showed a switch fluorescence ratio of 1.09.
CGTTTTGTTT gave a switch fluorescence ratio of 0.985.
TCCGGGTTCC showed a switch fluorescence ratio of 1.01.
With CTTCATTCTT the switch fluorescence ratio was 0.998.
GGTGTGGGCT showed a switch fluorescence ratio of 1.07.
AATGACTTTG showed a switch fluorescence ratio of 1.02.
Sequence ATAGGAGCCC has a switch fluorescence ratio of 1.01.
In the case of GGTCGCGTCG, the switch fluorescence ratio is reported as 0.98.
TCGGTGAACT showed a switch fluorescence ratio of 0.998.
In the case of CTATCCTCGT, the switch fluorescence ratio is reported as 0.993.
ATACTGATCT was tested, and the switch fluorescence ratio was 0.958.
For CGGAGGTTCA, the switch fluorescence ratio was 0.993.
With AGATGTACGT the switch fluorescence ratio was 1.01.
ATCAGTAGCT was tested, and the switch fluorescence ratio was 1.03.
GGGCATCGCG gave a switch fluorescence ratio of 0.994.
TTTGAGGTG was tested, and the switch fluorescence ratio was 1.06.
GCCTGTTGGG was tested, and the switch fluorescence ratio was 0.993.
TTATCTTCCG gave a switch fluorescence ratio of 1.2.
Work on TACCACGCGC yielded a switch fluorescence ratio of 1.1.
AAATTACATG showed a switch fluorescence ratio of 1.04.
TGCCGCTGAA gave a switch fluorescence ratio of 1.09.
TTGCAGAGTA was tested, and the switch fluorescence ratio was 1.08.
TACCGAGCGG showed a switch fluorescence ratio of 1.02.
With TCGGACTAAC the switch fluorescence ratio was 1.13.
For TGTAGTGCAG, the switch fluorescence ratio was 0.961.
In the case of CAAGGGGATC, the switch fluorescence ratio is reported as 1.85.
CCCGACATGT gave a switch fluorescence ratio of 1.03.
GTAATCACC gave a switch fluorescence ratio of 1.09.
Sequence TTATCAATCC has a switch fluorescence ratio of 0.984.
For CTACTAACTT, the switch fluorescence ratio was 1.14.
In the case of ACTCACGGTA, the switch fluorescence ratio is reported as 1.36.
AGGTCTGTGC gave a switch fluorescence ratio of 0.972.
GGATCGTACT was tested, and the switch fluorescence ratio was 1.05.
For CAAATCATTC, the switch fluorescence ratio was 1.05.
Work on TACGGGTCCG yielded a switch fluorescence ratio of 1.
For TATGTATTTA, the switch fluorescence ratio was 1.
Sequence TGGGCAGGG has a switch fluorescence ratio of 1.03.
Sequence GGATGAATGC has a switch fluorescence ratio of 0.956.
CAAATTCCCT showed a switch fluorescence ratio of 1.1.
With CTTCAACGC the switch fluorescence ratio was 1.51.
GAAGGTTCAG showed a switch fluorescence ratio of 0.955.
CGTACACGGA showed a switch fluorescence ratio of 1.02.
CTTGATGGCC gave a switch fluorescence ratio of 1.03.
With TGTGGAGACT the switch fluorescence ratio was 0.976.
TAGCAACCTC was tested, and the switch fluorescence ratio was 1.56.
CAGAGGTGCA gave a switch fluorescence ratio of 1.
Sequence ACGTTCGCCA has a switch fluorescence ratio of 1.08.
GTACTTCAGG was tested, and the switch fluorescence ratio was 1.02.
Sequence AAGAGTAGTC has a switch fluorescence ratio of 0.945.
For CCTAATCCAG, the switch fluorescence ratio was 1.04.
Work on AAATTGCGGT yielded a switch fluorescence ratio of 0.965.
TCAGTAGTGT gave a switch fluorescence ratio of 1.07.
Sequence AGGTTCAGAG has a switch fluorescence ratio of 1.06.
AACGCTTTGG was tested, and the switch fluorescence ratio was 1.35.
With TGTTGTGGAA the switch fluorescence ratio was 0.982.
AGGTAAAATG showed a switch fluorescence ratio of 0.955.
Sequence CGACTAGAGG has a switch fluorescence ratio of 0.988.
Work on CCGGCGATTC yielded a switch fluorescence ratio of 3.86.
CCGAAATGCG gave a switch fluorescence ratio of 3.56.
TCTGTCTTT was tested, and the switch fluorescence ratio was 1.01.
Sequence GGGTGTCATA has a switch fluorescence ratio of 0.999.
With GGTTGTGTAC the switch fluorescence ratio was 1.14.
Work on TGGCGCACTC yielded a switch fluorescence ratio of 1.41.
Sequence TGTCGTACGA has a switch fluorescence ratio of 1.
ACCTGCGAA was tested, and the switch fluorescence ratio was 1.13.
With GGGTCTCGGG the switch fluorescence ratio was 0.995.
For TGACGGTTTC, the switch fluorescence ratio was 0.976.
Work on GATGCGGATA yielded a switch fluorescence ratio of 1.08.
CTGTGCGGGT was tested, and the switch fluorescence ratio was 0.993.
For GGTGCAACGA, the switch fluorescence ratio was 1.05.
Sequence TCACTGGAGG has a switch fluorescence ratio of 0.977.
CGTAGCGGAA showed a switch fluorescence ratio of 1.37.
Sequence TAATCAGGCC has a switch fluorescence ratio of 0.964.
Work on GGGTATGCTC yielded a switch fluorescence ratio of 0.975.
In the case of GCCTACCTAG, the switch fluorescence ratio is reported as 1.03.
In the case of GATGCAGTGC, the switch fluorescence ratio is reported as 2.81.
AGGCTGTAC gave a switch fluorescence ratio of 1.47.
In the case of GCTTTGTGGG, the switch fluorescence ratio is reported as 1.
In the case of ACATGTCGCA, the switch fluorescence ratio is reported as 1.07.
TTCTCTGAAA was tested, and the switch fluorescence ratio was 1.11.
For CAGTCTCAA, the switch fluorescence ratio was 1.01.
Sequence TCCGAATGGA has a switch fluorescence ratio of 1.03.
For TTTGTGGATC, the switch fluorescence ratio was 1.05.
Work on AAGTGAGGC yielded a switch fluorescence ratio of 0.923.
Sequence CGGTGCTAAC has a switch fluorescence ratio of 1.1.
In the case of CCTATATGG, the switch fluorescence ratio is reported as 0.967.
GAATAGATAT showed a switch fluorescence ratio of 1.03.
GAACCGGTGG gave a switch fluorescence ratio of 1.04.
For TGTATGGTC, the switch fluorescence ratio was 0.943.
ATCGATTTAT showed a switch fluorescence ratio of 0.979.
Work on CTAATCGCG yielded a switch fluorescence ratio of 0.993.
Sequence GGTATAAAT has a switch fluorescence ratio of 1.01.
Work on CTTAATCCTA yielded a switch fluorescence ratio of 0.994.
For GGGATACCGG, the switch fluorescence ratio was 1.04.
Sequence TGTTGGAAAA has a switch fluorescence ratio of 1.26.
TACAGTCCGG was tested, and the switch fluorescence ratio was 1.02.
AGGCGTAAGA was tested, and the switch fluorescence ratio was 0.983.
TGCTATTGGC gave a switch fluorescence ratio of 1.02.
For TAAGAATTTT, the switch fluorescence ratio was 0.976.
AAGGACTCAG gave a switch fluorescence ratio of 1.04.
For AGATCGGTGT, the switch fluorescence ratio was 1.03.
For TCTACTGGTG, the switch fluorescence ratio was 1.23.
CGAGGAGTTG gave a switch fluorescence ratio of 0.984.
For AGGACCGACT, the switch fluorescence ratio was 1.05.
Sequence CGTGCGGCCT has a switch fluorescence ratio of 1.03.
For GCGTCCTGGC, the switch fluorescence ratio was 1.
ATGGCTGG showed a switch fluorescence ratio of 1.02.
TAAAGGCAA showed a switch fluorescence ratio of 1.1.
GACGATTTTT showed a switch fluorescence ratio of 0.997.
In the case of TACATCATCT, the switch fluorescence ratio is reported as 1.02.
CCAGTACAAG gave a switch fluorescence ratio of 1.05.
GGTCGCGCCT showed a switch fluorescence ratio of 0.981.
For TTGGTGGCT, the switch fluorescence ratio was 0.916.
Work on TGATCTCTGA yielded a switch fluorescence ratio of 1.08.

Reference: the supplement of paper PMC10126150
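Also: ATP exposure 15 min at 22 °C before imaging.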
